# Assay results published in PubChem BioAssay AID624417 (National Center for Advancing Translational Sciences (NCATS), 2012).
# The whole screen tested about 410,000 compounds, of which about 6,400 (1.6%) were called active. The shares of active, inactive and inconclusive entries below differ from those in the screen. The call rests on the fitted dose curve; in most records, active means well fitted inhibition curve with a large enough effect; inconclusive means small, poorly fitted or top-dose-only effect; inactive means no such curve, though single readings can be large or run the other way. Potencies of inconclusive entries are left out as doubtful fits.
# Molecular target: Glucagon-like peptide 1 receptor (Homo sapiens) (UniProt P43220)
# Assay: qHTS of GLP-1 Receptor Inverse Agonists (Inhibition Mode); further: nearly all actives have a fitted effect of over 55% in size
# Settings: HEK293 GLP-1R CRE-luciferase, luminescence, 24 h, GLP-1R form is constitutively active; activity change, negative = inhibition: at 38.3 µM (top of the series) unless noted
# Summary of the method: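 qHTS in 1536-well format: reporter HEK293 cells expressing constitutive GLP-1R activity in DMEM + 10% Nu serum, 24 hr with compounds at 37 deg C, luminescence read after 12 min with detection reagent.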
# On the % scale 0 is the no-effect control and ±100 the full control effect; potency means the concentration at half of the fitted maximal effect; tags describe the fitted curve by direction and shape.
# UniProt P43220, sequence (P43220 whole entry, looked up): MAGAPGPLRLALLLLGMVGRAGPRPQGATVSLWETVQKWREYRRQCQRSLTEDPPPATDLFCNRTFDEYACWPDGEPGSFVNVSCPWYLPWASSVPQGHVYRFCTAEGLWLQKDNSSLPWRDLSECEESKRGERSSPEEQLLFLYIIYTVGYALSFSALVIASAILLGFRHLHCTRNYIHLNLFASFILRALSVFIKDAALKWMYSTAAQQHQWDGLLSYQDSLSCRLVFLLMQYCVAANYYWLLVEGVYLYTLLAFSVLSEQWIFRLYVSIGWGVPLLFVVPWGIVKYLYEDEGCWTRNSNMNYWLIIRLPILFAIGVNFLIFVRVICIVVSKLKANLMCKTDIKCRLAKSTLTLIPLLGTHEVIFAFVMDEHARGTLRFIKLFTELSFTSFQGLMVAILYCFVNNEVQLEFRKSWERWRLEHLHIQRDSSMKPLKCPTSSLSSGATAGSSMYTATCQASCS
SMILES,Potency,"activity change, negative = inhibition"
CC(CCCCCCCCC(=O)O)N(CCO)C(=O)OC(C)(C)C (stereo unspecified),"inconclusive [inhibitor, single point]",–
COc1ccc(C(=O)/C=C/c2ccc(OC3CSC3)cc2)cc1,"inconclusive [inhibitor, single point]",–
Clc1cccc2sc(N3CCCC3)nc12,–,inactive: 21.5%
CC(NC(=S)Nc1ccccc1C(F)(F)F)C1CC2CCC1C2 (stereo unspecified),"inconclusive [inhibitor, single point]",–
Cc1ccc(OC(C)C(=O)Nc2ccncc2)cc1 (stereo unspecified),–,inactive: 10.1%
Cc1cc(Cl)ccc1Nc1ncccc1C(N)=O,"inconclusive [inhibitor, single point]",–
N#CCC(=O)N1CCN(C(c2ccccc2)c2ccccc2)CC1,"inconclusive [inhibitor, partial curve]",–
COc1c(Cl)cccc1-c1cn2ccc(C)cc2n1,"inconclusive [inhibitor, single point]",–
CC1=CC2=NC(=O)/C(=C\c3cccn3CCOc3ccccc3C)C(=N)N2O1,"inconclusive [inhibitor, single point]",–
COc1ccc(C2NC(=O)N(C)C3=C2C(=O)N(c2cccc(Cl)c2)C3)cc1 (stereo unspecified),–,inactive: 9.41%
CCC1(CC)NC(=O)N(CC(=O)N2N=C(c3ccc(Cl)cc3)CC2c2ccco2)C1=O (stereo unspecified),"inconclusive [inhibitor, single point]",–
COc1ccc(OCC(=O)N2CC3(C)CC2CC(C)(C)C3)cc1 (stereo unspecified),"inconclusive [inhibitor, single point]",–
CCCCn1c(-c2ccccc2C)nc2cc3[nH]c(=O)c(C(C)C)nc3cc21,"inconclusive [inhibitor, single point]",–
CC1CCN(c2nc3ccccc3n2CC(=O)c2ccccc2)CC1,"inconclusive [inhibitor, partial curve]",–
Oc1nc(Nc2ccc(F)cc2)sc1/C=C1\C=Nc2ccccc21,"inconclusive [inhibitor, single point]",–
CCc1ccc(Sc2cc(C(=O)NCc3ccccc3OC)c3ccccc3n2)cc1,"inconclusive [inhibitor, partial curve]",–
O=C(CC(c1ccccc1)(c1ccccc1)c1ccccc1)N[C@@H](Cc1ccccc1)C(=O)O,"inconclusive [inhibitor, single point]",–
CC1(C)CC2(CCO1)OC(=O)CC2C(=O)Nc1ccccc1Cl (stereo unspecified),"inconclusive [inhibitor, single point]",–
O=C(CCl)Nc1cccc(S(=O)(=O)N2CCCCCC2)c1,"inconclusive [inhibitor, partial curve, poor fit]",–
O=C(Nc1ccn(Cc2ccc(Cl)cc2)n1)c1ccccc1,–,inactive: 3.12% [at 7.66 µM]
CN(CCc1nc2ccccc2[nH]1)Cc1nc(CC2CC2)no1,–,inactive: -11.4%
c1ccc(SCc2nc(-c3ccccn3)no2)cc1,–,inactive: 6.95%

SMILES,Potency,"activity change, negative = inhibition"
COC(=O)CNc1c(-c2ccccc2)nc2ccc(Br)cn12,"inconclusive [inhibitor, single point]",–
CCc1nc2ccc(C(=O)NCCCn3ccnc3)cn2c1N(C)Cc1ccc(Cl)cc1,–,inactive: 23.2%
Cc1cccc(N2C(=O)N(CC(=O)C(C)(C)C)c3ccccc3S2(=O)=O)c1C,"inconclusive [inhibitor, single point]",–
CC(C)(CNC(=O)c1cc(-c2ccc(Cl)s2)nc2ccccc12)N1CCOCC1,"inconclusive [inhibitor, partial curve, poor fit]",–
CCCCNC(=O)C[C@@H]1C[C@@]2(C(=O)OCC)CCC=C2N(Cc2ccc(Cl)cc2Cl)C1=O,"inconclusive [inhibitor, single point]",–
Cc1oc2cc(O)ccc2c(=O)c1Oc1ccccc1,–,inactive: -13.1%
O=c1cc(-c2ccccc2Cl)oc2c(NS(=O)(=O)c3cccc4nsnc34)ccc(O)c12,"inconclusive [inhibitor, single point]",–
COc1ccc(Cl)cc1NC(=O)c1cc(S(=O)(=O)NC2CCCCCC2)ccc1F,"inconclusive [inhibitor, partial curve, poor fit]",–
Cc1ccc(C)c(OCC(=O)NCCNC(=O)COc2cc(C)ccc2C)c1,–,inactive: -4.17%
O=C(/C=C/c1ccc2c(c1)OCO2)NCCCN1CCOCC1,–,inactive: 23.3%
O=C1c2cccc(OCc3ccc(F)cc3)c2CCN1Cc1ccc(F)cc1,"inconclusive [inhibitor, partial curve]",–
COc1ccc(C(C)C)cc1S(=O)(=O)N1CCN(c2ccccc2)CC1,active: 8.91 µM,–
Cc1cc(C(=O)Nc2nc3c(s2)CCCC3)cs1,"inconclusive [inhibitor, partial curve]",–
Cc1ccc(NC(=O)c2ccc(-c3cccc(Cl)c3C)o2)cc1,"inconclusive [inhibitor, single point]",–
COc1ccc2cc(C(=O)/C=C/c3cc(OC)c(OC)c(OC)c3)ccc2c1,"inconclusive [inhibitor, partial curve, poor fit]",–
CCc1ccc2nc(N(CCN(CC)CC)C(=O)c3ccco3)sc2c1,"inconclusive [inhibitor, full curve, poor fit]",–
COc1ccc(NC(=O)CCN(c2ccc(OC)cc2)S(=O)(=O)c2ccc(C)c(C)c2)cc1,"inconclusive [inhibitor, single point]",–
COCCN1CCN(c2cc(-c3ccccc3)nc3cc(-c4cccc(F)c4)nn23)CC1,active: 7.94 µM,–
Cc1cccc(NC(=O)CSCC(=O)N(CCC(C)C)c2c(N)n(Cc3ccccc3)c(=O)[nH]c2=O)c1,"inconclusive [inhibitor, single point]",–
CCNC(=S)N1CCC(C(=O)c2ccc(Cl)cc2)CC1,"inconclusive [inhibitor, single point]",–
Cc1ccc(OCc2nc(-c3ccc(C(=O)N4CCN(c5ccccc5F)CC4)cc3)oc2C)cc1,–,inactive: 9.46%
O=Cc1c(OCc2ccccc2)ccc2ccccc12,"inconclusive [inhibitor, single point]",–

SMILES,Potency,"activity change, negative = inhibition"
CC(C)(CNC(=O)c1ccc(NS(=O)(=O)c2ccc(Br)cc2)cc1)N1CCOCC1,"inconclusive [inhibitor, single point]",–
COC(=O)c1cn(C(=O)c2ccccc2Cl)c2ccccc12,"inconclusive [inhibitor, single point]",–
CCOC(=O)c1ccc(N2C(=O)c3[nH]nc(-c4ccc(C)cc4)c3C2c2cccc(F)c2)cc1 (stereo unspecified),active: 10 µM,–
O=C(CSCc1ccccc1)NNC(=S)Nc1cccc(Cl)c1Cl,"inconclusive [inhibitor, partial curve, poor fit]",–
O=C(OCc1ccc([N+](=O)[O-])cc1)c1ccc2ccccc2n1,"inconclusive [inhibitor, partial curve]",–
Cc1cc(C(O)c2ncc(-c3ccc(Cl)cc3)[nH]2)ccc1F (stereo unspecified),"inconclusive [inhibitor, single point]",–
Cc1ccc(CSc2nc3ccc(NC(=O)COc4ccccc4)cc3s2)cc1,–,inactive: 13.8%
CN(c1ccccc1)S(=O)(=O)c1nnc(NC(=O)COc2ccccc2F)s1,"inconclusive [inhibitor, single point]",–
Cc1ccnc2c(N3C(=O)C4C5c6ccccc6C(c6ccccc65)C4C3=O)cccc12 (stereo unspecified),"inconclusive [inhibitor, partial curve, poor fit]",–
CC(C)C(=O)NC(c1ccc([N+](=O)[O-])cc1)c1c(O)ccc2ccccc12 (stereo unspecified),"inconclusive [inhibitor, partial curve, poor fit]",–
COc1cc([N+](=O)[O-])cc(/C=N/NC(=O)Cn2nccc2C)c1O,"inconclusive [inhibitor, partial curve, poor fit]",–
O=c1nccc(N/N=C/c2ccccc2O)[nH]1,"inconclusive [inhibitor, full curve, poor fit]",–
CCO[C@@H]1OC(C(=O)N2CCCCCCC2)=C[C@H](c2csc3ccccc23)[C@H]1CCCO,"inconclusive [inhibitor, single point]",–
O=C(NCCNC(=O)c1cc(OCC(F)(F)F)ccc1OCC(F)(F)F)Nc1ccc(OC(F)(F)F)cc1,"inconclusive [inhibitor, partial curve, poor fit]",–
O=C(NCc1ccccc1)c1cc(-c2cccs2)on1,–,inactive: 21.7%
COc1ccccc1N1CCN(C(=O)c2ccc3[nH]c4c(c3c2)CCCC4)CC1,active: 10 µM,–
CCc1cccc(NC(=O)CN2C(=O)COc3ccc(S(=O)(=O)Nc4ccccc4)cc32)c1,"inconclusive [inhibitor, single point]",–
Nc1c(C(=O)NCc2ccccc2)nnn1Cc1cccc(Cl)c1,"inconclusive [inhibitor, partial curve, poor fit]",–
O=C(NCc1cccc(C(F)(F)F)c1)c1ccc2c(c1)OCO2,"inconclusive [inhibitor, single point]",–
O=C1CC(C(=O)Nc2ccc(O)c(C(=O)O)c2)C(c2ccccc2)O1 (stereo unspecified),–,inactive: 0.874%
CN(c1ccccc1)S(=O)(=O)c1cccc(C(=O)NC2CC(C)(C)NC(C)(C)C2)c1,"inconclusive [inhibitor, single point]",–
CN(c1ccccc1)S(=O)(=O)c1cc(C(=O)Nc2nc3ccccc3[nH]2)ccc1Cl,"inconclusive [inhibitor, full curve, poor fit]",–
